Source: the supplement of paper PMC8728848
The list shows a part of the results.

Columns and labels:
Assay in all cases: glycan array binding signal (z-score within array); higher = stronger binding
Settings in all cases: glycan notation: IUPAC condensed, linker removed
[1] = molecular target: Gal(b1-3)GlcNAc(b1-6)[Gal(b1-3)]GalNAc
Summary of the method: (§1)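 The binding signal is a Z-score computed within each array and averaged over linkers. Arrays of the same protein sequence at different concentrations or buffers were also averaged together. Data originate from 3228 arrays in the Consortium for Functional Glycomics database, kept only where the protein sequence was available.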

Gal(b1-3)GlcNAc6S = molecular target: Gal(b1-3)GlcNAc6S
Summary of the method: as §1

[2] = molecular target: Gal(b1-3)[Fuc(a1-4)]GlcNAc
Summary of the method: as §1

[3] = molecular target: Gal(b1-3)[Fuc(a1-4)]GlcNAc(b1-2)Man
Summary of the method: as §1

[4] = molecular target: Gal(b1-3)[Fuc(a1-4)]GlcNAc(b1-2)Man(a1-3)[Gal(b1-3)[Fuc(a1-4)]GlcNAc(b1-2)Man(a1-6)]Man(b1-4)GlcNAc(b1-4)[Fuc(a1-6)]GlcNAc
Summary of the method: as §1

[5] = molecular target: Gal(b1-3)[Fuc(a1-4)]GlcNAc(b1-3)Gal(b1-3)[Fuc(a1-4)]GlcNAc
Summary of the method: as §1

[6] = molecular target: Gal(b1-3)[Fuc(a1-4)]GlcNAc(b1-3)Gal(b1-4)[Fuc(a1-3)]GlcNAc
Summary of the method: as §1

[7] = molecular target: Gal(b1-3)[Fuc(a1-4)]GlcNAc(b1-6)GalNAc
Summary of the method: as §1

[8] = molecular target: Gal(b1-3)[GlcNAc(b1-6)]GalNAc
Summary of the method: as §1

[9] = molecular target: Gal(b1-3)[Neu5Ac(a2-6)]GalNAc
Summary of the method: as §1

[10] = molecular target: Gal(b1-3)[Neu5Ac(a2-6)]GlcNAc(b1-4)Gal(b1-4)Glc
Summary of the method: as §1

[11] = molecular target: Gal(b1-3)[Neu5Ac(b2-6)]GalNAc
Summary of the method: as §1

Gal(b1-4)Gal = molecular target: Gal(b1-4)Gal
Summary of the method: as §1

[12] = molecular target: Gal(b1-4)GalNAc(a1-3)[Fuc(a1-2)]Gal(b1-4)GlcNAc
Summary of the method: as §1

[13] = molecular target: Gal(b1-4)GalNAc(b1-3)[Fuc(a1-2)]Gal(b1-4)GlcNAc
Summary of the method: as §1

Gal(b1-4)Glc = molecular target: Gal(b1-4)Glc
Summary of the method: as §1

Gal(b1-4)Glc6S = molecular target: Gal(b1-4)Glc6S
Summary of the method: as §1

Gal(b1-4)GlcNAc = molecular target: Gal(b1-4)GlcNAc
Summary of the method: as §1

[14] = molecular target: Gal(b1-4)GlcNAc(a1-6)Gal(b1-4)GlcNAc
Summary of the method: as §1

Gal(b1-4)GlcNAc(b1-2)Man = molecular target: Gal(b1-4)GlcNAc(b1-2)Man
Summary of the method: as §1

[15] = molecular target: Gal(b1-4)GlcNAc(b1-2)Man(a1-3)Man(b1-4)GlcNAc(b1-4)GlcNAc
Summary of the method: as §1

[16] = molecular target: Gal(b1-4)GlcNAc(b1-2)Man(a1-3)[Gal(b1-4)GlcNAc(b1-2)Man(a1-6)]Man(b1-4)GlcNAc(b1-4)GlcNAc
Summary of the method: as §1

[17] = molecular target: Gal(b1-4)GlcNAc(b1-2)Man(a1-3)[Gal(b1-4)GlcNAc(b1-2)Man(a1-6)]Man(b1-4)GlcNAc(b1-4)[Fuc(a1-6)]GlcNAc
Summary of the method: as §1

[18] = molecular target: Gal(b1-4)GlcNAc(b1-2)Man(a1-3)[Gal(b1-4)GlcNAc(b1-2)Man(a1-6)][Gal(b1-4)GlcNAc(b1-4)]Man(b1-4)GlcNAc(b1-4)[Fuc(a1-6)]GlcNAc
Summary of the method: as §1

[19] = molecular target: Gal(b1-4)GlcNAc(b1-2)Man(a1-3)[Gal(b1-4)GlcNAc(b1-2)Man(a1-6)][GlcNAc(b1-4)]Man(b1-4)GlcNAc(b1-4)[Fuc(a1-6)]GlcNAc
Summary of the method: as §1

[20] = molecular target: Gal(b1-4)GlcNAc(b1-2)Man(a1-3)[GlcNAc(b1-2)Man(a1-6)]Man(b1-4)GlcNAc(b1-4)GlcNAc
Summary of the method: as §1

[21] = molecular target: Gal(b1-4)GlcNAc(b1-2)Man(a1-3)[GlcNAc(b1-4)][Gal(b1-4)GlcNAc(b1-2)Man(a1-6)]Man(b1-4)GlcNAc(b1-4)GlcNAc
Summary of the method: as §1

[22] = molecular target: Gal(b1-4)GlcNAc(b1-2)Man(a1-3)[Man(a1-6)]Man(b1-4)GlcNAc(b1-4)GlcNAc
Summary of the method: as §1

[23] = molecular target: Gal(b1-4)GlcNAc(b1-2)Man(a1-6)Man(b1-4)GlcNAc(b1-4)GlcNAc
Summary of the method: as §1

[24] = molecular target: Gal(b1-4)GlcNAc(b1-2)Man(a1-6)[GlcNAc(b1-2)Man(a1-3)]Man(b1-4)GlcNAc(b1-4)GlcNAc
Summary of the method: as §1

[25] = molecular target: Gal(b1-4)GlcNAc(b1-2)Man(a1-6)[Man(a1-3)]Man(b1-4)GlcNAc(b1-4)GlcNAc
Summary of the method: as §1

[26] = molecular target: Gal(b1-4)GlcNAc(b1-2)[Gal(b1-4)GlcNAc(b1-4)]Man(a1-3)[Gal(b1-4)GlcNAc(b1-2)Man(a1-6)]Man(b1-4)GlcNAc(b1-4)GlcNAc
Summary of the method: as §1

[27] = molecular target: Gal(b1-4)GlcNAc(b1-2)[Gal(b1-4)GlcNAc(b1-4)]Man(a1-3)[Gal(b1-4)GlcNAc(b1-2)[Gal(b1-4)GlcNAc(b1-6)]Man(a1-6)]Man(b1-4)GlcNAc(b1-4)GlcNAc
Summary of the method: as §1

[28] = molecular target: Gal(b1-4)GlcNAc(b1-2)[Gal(b1-4)GlcNAc(b1-4)]Man(a1-3)[GlcNAc(b1-4)][Gal(b1-4)GlcNAc(b1-2)Man(a1-6)]Man(b1-4)GlcNAc(b1-4)GlcNAc
Summary of the method: as §1

[29] = molecular target: Gal(b1-4)GlcNAc(b1-2)[Gal(b1-4)GlcNAc(b1-4)]Man(a1-3)[GlcNAc(b1-4)][Gal(b1-4)GlcNAc(b1-2)[Gal(b1-4)GlcNAc(b1-6)]Man(a1-6)]Man(b1-4)GlcNAc(b1-4)GlcNAc
Summary of the method: as §1

[30] = molecular target: Gal(b1-4)GlcNAc(b1-2)[Gal(b1-4)GlcNAc(b1-6)]Man(a1-6)[Gal(b1-4)GlcNAc(b1-2)Man(a1-3)]Man(b1-4)GlcNAc(b1-4)GlcNAc
Summary of the method: as §1

[31] = molecular target: Gal(b1-4)GlcNAc(b1-2)[Gal(b1-4)GlcNAc(b1-6)]Man(a1-6)[Gal(b1-4)GlcNAc(b1-2)Man(a1-3)]Man(b1-4)GlcNAc(b1-4)[Fuc(a1-6)]GlcNAc
Summary of the method: as §1

[32] = molecular target: Gal(b1-4)GlcNAc(b1-2)[Gal(b1-4)GlcNAc(b1-6)]Man(a1-6)[GlcNAc(b1-4)][Gal(b1-4)GlcNAc(b1-2)Man(a1-3)]Man(b1-4)GlcNAc(b1-4)GlcNAc
Summary of the method: as §1

[33] = molecular target: Gal(b1-4)GlcNAc(b1-2)[Gal(b1-4)GlcNAc(b1-6)]Man(a1-6)[GlcNAc(b1-4)][Gal(b1-4)GlcNAc(b1-2)[Gal(b1-4)GlcNAc(b1-4)]Man(a1-3)]Man(b1-4)GlcNAc(b1-4)[Fuc(a1-6)]GlcNAc
Summary of the method: as §1

[34] = molecular target: Gal(b1-4)GlcNAc(b1-3)Gal(b1-3)GalNAc
Summary of the method: as §1

[35] = molecular target: Gal(b1-4)GlcNAc(b1-3)Gal(b1-3)GlcNAc
Summary of the method: as §1

[36] = molecular target: Gal(b1-4)GlcNAc(b1-3)Gal(b1-4)Glc
Summary of the method: as §1

[37] = molecular target: Gal(b1-4)GlcNAc(b1-3)Gal(b1-4)GlcNAc
Summary of the method: as §1

[38] = molecular target: Gal(b1-4)GlcNAc(b1-3)Gal(b1-4)GlcNAc(b1-2)Man(a1-3)[Gal(b1-4)GlcNAc(b1-3)Gal(b1-4)GlcNAc(b1-2)Man(a1-6)]Man(b1-4)GlcNAc(b1-4)GlcNAc
Summary of the method: as §1

[39] = molecular target: Gal(b1-4)GlcNAc(b1-3)Gal(b1-4)GlcNAc(b1-2)Man(a1-3)[Gal(b1-4)GlcNAc(b1-3)Gal(b1-4)GlcNAc(b1-2)Man(a1-6)]Man(b1-4)GlcNAc(b1-4)[Fuc(a1-6)]GlcNAc
Summary of the method: as §1

B1: GS13846A-bth-444-19-444 (Bacteroides thetaiotaomicron) (protein)
chain: SCENEFDVSDKADSLISVTVNTLNNQAAYNVGETAQAELWIQRGGLKDASGKVQFVVDPLLLDSLNQEDKTNYELLPENCYEMTNTEFTVDKNELCGYITYHPEKILALSAYNETKYVLPLRLISNDLAINPARNTSFLAFTILEPIVHISNAGVYNINPDLTSTMDIQIGVPFTNKWDILCNLTEDLSLIDEYNQINKVNFTLLPENAYTAPESVTLQEGVSQITASYQLKNNLVPGNYILPIKIGSITASQGGVPNNSLVIDEESNVLFCIVKEGNKINKSGWEVIECSSEHAGNEATYMIDDNESTYWHCKFKNEAGSSVPPFHFIIDMKKEITIAQIDLLNRGDGAANNIKWVEFYASNNNSEWDKIGAGDFNDEGTRATFRYYVKSTKARYLKLIIPEGYGNNCPPAAIRELTVYGLEGNN
glycan array binding signal (z-score) [1]: -0.028
glycan array binding signal (z-score) (Gal(b1-3)GlcNAc6S): -0.3
glycan array binding signal (z-score) [2]: -0.189
glycan array binding signal (z-score) [3]: -0.058
glycan array binding signal (z-score) [4]: 0.111
glycan array binding signal (z-score) [5]: -0.326
glycan array binding signal (z-score) [6]: -0.475
glycan array binding signal (z-score) [7]: -0.199
glycan array binding signal (z-score) [8]: -0.285
glycan array binding signal (z-score) [9]: -0.253
glycan array binding signal (z-score) [10]: 0.053
glycan array binding signal (z-score) [11]: -0.333
glycan array binding signal (z-score) (Gal(b1-4)Gal): 1.07
glycan array binding signal (z-score) [12]: -0.207
glycan array binding signal (z-score) [13]: -0.133
glycan array binding signal (z-score) (Gal(b1-4)Glc): -0.452
glycan array binding signal (z-score) (Gal(b1-4)Glc6S): -0.184
glycan array binding signal (z-score) (Gal(b1-4)GlcNAc): -0.328
glycan array binding signal (z-score) [14]: -0.193
glycan array binding signal (z-score) (Gal(b1-4)GlcNAc(b1-2)Man): -0.06
glycan array binding signal (z-score) [15]: -0.063
glycan array binding signal (z-score) [16]: 0.043
glycan array binding signal (z-score) [17]: 0.221
glycan array binding signal (z-score) [18]: -0.343
glycan array binding signal (z-score) [19]: -0.411
glycan array binding signal (z-score) [20]: -0.365
glycan array binding signal (z-score) [21]: -0.238
glycan array binding signal (z-score) [22]: -0.102
glycan array binding signal (z-score) [23]: -0.133
glycan array binding signal (z-score) [24]: -0.362
glycan array binding signal (z-score) [25]: 2.21
glycan array binding signal (z-score) [26]: 0.24
glycan array binding signal (z-score) [27]: -0.414
glycan array binding signal (z-score) [28]: 0.158
glycan array binding signal (z-score) [29]: -0.248
glycan array binding signal (z-score) [30]: -0.304
glycan array binding signal (z-score) [31]: -0.121
glycan array binding signal (z-score) [32]: -0.105
glycan array binding signal (z-score) [33]: -0.061
glycan array binding signal (z-score) [34]: 0.265
glycan array binding signal (z-score) [35]: -0.335
glycan array binding signal (z-score) [36]: -0.345
glycan array binding signal (z-score) [37]: -0.407
glycan array binding signal (z-score) [38]: -0.33
glycan array binding signal (z-score) [39]: 0.16
